The values below come from PMC5928365.

By UniProt entry, the sequences of proteins in these tests, tags left out.
UniProt P49674: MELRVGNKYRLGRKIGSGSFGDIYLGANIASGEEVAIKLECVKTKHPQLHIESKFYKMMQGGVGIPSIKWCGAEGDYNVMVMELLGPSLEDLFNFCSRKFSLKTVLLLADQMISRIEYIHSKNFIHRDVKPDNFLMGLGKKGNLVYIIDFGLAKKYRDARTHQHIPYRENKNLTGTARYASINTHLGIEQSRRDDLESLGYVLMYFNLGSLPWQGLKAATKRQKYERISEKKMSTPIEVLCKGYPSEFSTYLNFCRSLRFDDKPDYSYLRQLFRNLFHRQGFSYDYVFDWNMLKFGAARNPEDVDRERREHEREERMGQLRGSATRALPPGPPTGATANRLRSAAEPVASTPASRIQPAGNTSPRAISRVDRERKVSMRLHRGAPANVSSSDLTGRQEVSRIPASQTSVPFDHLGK

Test [1] addresses T1, GST–p120-catenin lacking the entire regulatory domain (aa 1–350) (UniProt P30999).
T1 sequence: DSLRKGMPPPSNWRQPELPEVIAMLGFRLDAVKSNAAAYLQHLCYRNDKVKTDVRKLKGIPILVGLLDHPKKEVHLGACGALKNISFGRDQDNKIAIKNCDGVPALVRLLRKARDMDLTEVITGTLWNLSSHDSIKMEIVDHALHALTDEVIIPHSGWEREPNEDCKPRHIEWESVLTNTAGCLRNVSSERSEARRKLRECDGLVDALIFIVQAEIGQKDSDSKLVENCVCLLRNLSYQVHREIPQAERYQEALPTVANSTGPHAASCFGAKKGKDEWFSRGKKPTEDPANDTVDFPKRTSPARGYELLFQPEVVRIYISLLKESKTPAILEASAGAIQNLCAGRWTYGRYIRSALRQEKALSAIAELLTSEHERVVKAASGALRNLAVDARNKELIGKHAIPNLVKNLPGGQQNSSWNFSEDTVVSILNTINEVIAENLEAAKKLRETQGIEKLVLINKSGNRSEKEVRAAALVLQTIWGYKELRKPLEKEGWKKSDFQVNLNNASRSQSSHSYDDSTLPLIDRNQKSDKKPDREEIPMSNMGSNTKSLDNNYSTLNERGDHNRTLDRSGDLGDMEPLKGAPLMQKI
Nature of the test: pull-down; recombinant GST–p120-catenin (wild-type, deletion fragments, or phosphorylated by Src or CK1) as bait with HEK293T cell extracts (NP-40 0.5% lysis buffer), 4 °C 2 h, glutathione-Sepharose, Western blot; only the target purified. (In general: Immunoblotting shows a protein as a band on a membrane.)

For test [2], the target named is T2, GST–p120-catenin lacking the first 102 amino acids (UniProt P30999).
T2 sequence: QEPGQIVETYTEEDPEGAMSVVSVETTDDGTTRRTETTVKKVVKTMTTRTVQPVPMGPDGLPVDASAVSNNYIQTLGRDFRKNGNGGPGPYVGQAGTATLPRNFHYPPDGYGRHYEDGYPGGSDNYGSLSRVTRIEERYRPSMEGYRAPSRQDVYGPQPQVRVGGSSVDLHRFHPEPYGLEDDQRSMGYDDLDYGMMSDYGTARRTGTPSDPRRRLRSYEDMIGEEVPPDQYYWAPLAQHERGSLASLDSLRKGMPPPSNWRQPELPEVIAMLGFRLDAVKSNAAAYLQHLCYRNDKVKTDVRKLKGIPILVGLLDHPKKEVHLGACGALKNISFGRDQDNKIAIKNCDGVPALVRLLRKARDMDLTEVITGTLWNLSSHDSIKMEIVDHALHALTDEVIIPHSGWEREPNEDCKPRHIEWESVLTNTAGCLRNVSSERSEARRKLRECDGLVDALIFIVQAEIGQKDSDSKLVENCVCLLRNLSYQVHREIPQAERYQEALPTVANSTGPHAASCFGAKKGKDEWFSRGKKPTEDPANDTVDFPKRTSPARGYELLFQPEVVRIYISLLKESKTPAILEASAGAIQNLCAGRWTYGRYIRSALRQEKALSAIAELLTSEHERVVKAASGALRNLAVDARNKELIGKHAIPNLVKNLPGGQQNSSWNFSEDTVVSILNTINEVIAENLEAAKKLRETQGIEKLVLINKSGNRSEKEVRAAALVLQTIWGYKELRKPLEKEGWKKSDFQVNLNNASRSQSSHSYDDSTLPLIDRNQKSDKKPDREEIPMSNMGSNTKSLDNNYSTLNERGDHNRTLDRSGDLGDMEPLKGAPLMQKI
Described as above.

The target of test [3] is T3, GST–p120-catenin wild-type (UniProt P30999).
T3 sequence: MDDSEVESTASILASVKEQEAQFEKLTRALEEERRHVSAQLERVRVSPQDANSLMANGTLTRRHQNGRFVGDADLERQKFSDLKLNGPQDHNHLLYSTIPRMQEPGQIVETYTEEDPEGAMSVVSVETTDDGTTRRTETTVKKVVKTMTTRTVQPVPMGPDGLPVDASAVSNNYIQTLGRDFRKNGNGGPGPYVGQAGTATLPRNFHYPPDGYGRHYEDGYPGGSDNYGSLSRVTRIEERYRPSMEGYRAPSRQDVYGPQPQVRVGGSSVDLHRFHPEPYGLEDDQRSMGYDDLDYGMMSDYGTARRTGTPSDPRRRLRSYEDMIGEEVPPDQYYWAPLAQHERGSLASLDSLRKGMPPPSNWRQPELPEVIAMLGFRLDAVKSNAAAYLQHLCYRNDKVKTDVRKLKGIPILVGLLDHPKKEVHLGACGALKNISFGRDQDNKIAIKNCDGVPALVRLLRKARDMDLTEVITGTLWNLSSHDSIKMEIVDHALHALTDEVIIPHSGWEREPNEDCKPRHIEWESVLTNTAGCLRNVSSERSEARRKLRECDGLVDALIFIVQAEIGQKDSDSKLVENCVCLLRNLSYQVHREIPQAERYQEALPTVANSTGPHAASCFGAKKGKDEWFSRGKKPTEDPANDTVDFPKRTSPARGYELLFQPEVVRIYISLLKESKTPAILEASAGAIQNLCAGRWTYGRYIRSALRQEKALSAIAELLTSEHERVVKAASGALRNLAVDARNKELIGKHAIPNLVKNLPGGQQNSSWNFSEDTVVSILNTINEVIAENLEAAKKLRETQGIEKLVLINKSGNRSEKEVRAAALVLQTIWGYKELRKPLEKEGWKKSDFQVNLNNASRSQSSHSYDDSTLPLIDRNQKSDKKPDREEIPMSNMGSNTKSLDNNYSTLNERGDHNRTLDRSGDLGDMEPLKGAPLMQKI
The description is as above.

Test [4] has as its target T4, p120-catenin phosphorylated by CK1 (UniProt P30999).
T4 sequence (chain, phosphorylated in vitro by CK1 (sites not printed)): T3 sequence
The test is described as above.

The target in test [5] is T5, p120-catenin phosphorylated by Src (UniProt P30999).
T5 sequence (chain, phosphorylated in vitro by Src (sites not printed)): T3 sequence
The description is as above.

The target in test [6] is T6, GST–cytoRor2 (cytoplasmic domain of Ror2, amino acids 426–944) (mouse (from the plasmid name pcDNA-mRor2-HA)) (UniProt Q9Z138).
T6 sequence: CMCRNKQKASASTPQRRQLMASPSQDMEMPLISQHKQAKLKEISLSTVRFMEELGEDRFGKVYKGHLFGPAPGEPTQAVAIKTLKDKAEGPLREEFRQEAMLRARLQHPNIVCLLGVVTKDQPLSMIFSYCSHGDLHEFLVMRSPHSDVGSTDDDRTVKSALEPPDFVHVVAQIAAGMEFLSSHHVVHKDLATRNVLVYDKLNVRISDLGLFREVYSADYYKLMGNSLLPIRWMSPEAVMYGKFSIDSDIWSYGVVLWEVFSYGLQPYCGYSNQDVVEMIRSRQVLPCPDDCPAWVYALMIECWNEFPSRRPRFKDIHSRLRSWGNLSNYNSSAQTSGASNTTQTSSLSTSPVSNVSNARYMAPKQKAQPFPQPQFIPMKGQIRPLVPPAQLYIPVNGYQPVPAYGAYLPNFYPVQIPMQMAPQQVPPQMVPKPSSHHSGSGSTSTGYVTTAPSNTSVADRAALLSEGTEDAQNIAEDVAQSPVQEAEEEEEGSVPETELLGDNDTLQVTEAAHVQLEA
Nature of the test: pull-down; 10 pmol GST–cyto-Ror2 as bait with 700 μg total cell extracts from control, p120-catenin or CK1ε HEK293T CRISPR cells; Western blot; only the target purified.

Test [7] addresses Ror2 (human (endogenous in HEK293T)) (UniProt Q01974). Put plainly: co-IP; Ror2 immunoprecipitated from extracts of control or p120-catenin CRISPR HEK293T cells treated with control or Wnt5a-conditioned medium for 5 min; associated proteins by Western blot.
Test [8] addresses T7, GST–cytoRor2 (aa 563–944) (mouse (from the plasmid name pcDNA-mRor2-HA)) (UniProt Q9Z138).
T7 sequence: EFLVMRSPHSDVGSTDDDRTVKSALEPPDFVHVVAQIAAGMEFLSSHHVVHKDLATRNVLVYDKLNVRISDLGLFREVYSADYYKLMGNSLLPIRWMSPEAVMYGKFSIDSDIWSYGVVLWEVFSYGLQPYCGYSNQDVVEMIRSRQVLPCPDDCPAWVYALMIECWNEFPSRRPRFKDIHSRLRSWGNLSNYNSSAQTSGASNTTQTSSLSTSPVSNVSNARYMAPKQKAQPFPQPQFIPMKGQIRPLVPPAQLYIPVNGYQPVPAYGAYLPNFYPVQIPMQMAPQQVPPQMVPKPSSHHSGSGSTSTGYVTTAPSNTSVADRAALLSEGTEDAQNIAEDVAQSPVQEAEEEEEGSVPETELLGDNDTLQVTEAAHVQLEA
Nature of the test: pull-down; Fig. S10; mapping of the CK1ε binding site on Ror2 fragments; legend not shown, source of CK1ε not told.

Test [9] deals with T8, GST–cytoRor2 (aa 426–563) (mouse (from the plasmid name pcDNA-mRor2-HA)) (UniProt Q9Z138).
T8 sequence: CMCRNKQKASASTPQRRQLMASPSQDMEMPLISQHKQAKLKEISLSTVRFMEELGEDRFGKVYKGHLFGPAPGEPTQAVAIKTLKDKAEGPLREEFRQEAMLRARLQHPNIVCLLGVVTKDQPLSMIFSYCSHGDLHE
Nature of the test: pull-down; GST–cytoRor2 or its fragments as bait with recombinant p120-catenin, 4 °C 2 h, glutathione-Sepharose, Western blot; both purified.

Test [10] has as its target T7, GST–cytoRor2 (aa 563–944) (mouse (from the plasmid name pcDNA-mRor2-HA)). The description is as above.
The target of test [11] is T6, GST–cytoRor2 (cytoplasmic domain of Ror2, amino acids 426–944) (mouse (from the plasmid name pcDNA-mRor2-HA)). The test is described as above.
Test [12] has as its target T9, GST–cytoRor2 phosphorylated by Src (mouse (from the plasmid name pcDNA-mRor2-HA)) (UniProt Q9Z138).
T9 sequence (chain, phosphorylated in vitro by Src (sites not printed)): T6 sequence
The description is as above.

Results are given in words; binding and its absence hold for the method and conditions named. For part of these data: Binding seen in cells or lysates may run through a third protein. Some binding calls cover weakened binding; strength is not graded here. For part of these data: Tags and fused reporters may be left off the sequences shown.

For “Ror2 (from UniProt Q01974 34-943) (receptor)”, the binding entry in test [1] is listed as “no binding”; in test [2], “binds”; in [3], “binds”; in test [4] it was “binds”; in [5], “binds”.

In the case of “CK1ε (from UniProt P49674 1-416) (enzyme)”, the binding result in test [6] and in test [7] was “binds” each time.

Turning to “CK1ε as used in the mapping of Fig. S10 (from UniProt P49674 1-416) (enzyme)”, in test [8], the binding result is “binds”.

B1: recombinant p120-catenin (protein, UniProt P30999 1-938)
chain: T3 sequence
Take B1: the binding entry is listed as “binds” in [9], “no binding” in test [10], “binds” in test [11] and “binds” in test [12].
